Results on 109 sequences are retold here after publication PMC6212790.

The other results are listed elsewhere or left out. At the low end of the ranking the order means little.

The test addresses T1, GST-Rok (full length) (UniProt O34857).
T1 sequence: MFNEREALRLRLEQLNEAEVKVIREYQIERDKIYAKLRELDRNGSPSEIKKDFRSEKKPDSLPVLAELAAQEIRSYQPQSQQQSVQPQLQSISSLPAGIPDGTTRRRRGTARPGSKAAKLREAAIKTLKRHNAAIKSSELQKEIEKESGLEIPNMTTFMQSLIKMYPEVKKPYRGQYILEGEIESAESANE
Put plainly: protein binding microarray.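 Note: rank score from −0.5 (least bound) to 0.5 (best bound).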 As to conditions: Rok is a gene silencer of Bacillus subtilis; high values mean tight binding; most listed sequences are background and not binding sites; double strand, one strand shown.
On to CTAGGCTA, for which the binding signal was -0.127 E-score. Regarding AGGTCGAA, the binding signal is -0.00683 E-score. In turn, AGTTCGAA returned a binding signal of 0.213 E-score. The sequence CGTGCGCA gave a binding signal of -0.155 E-score. Sequence GGAAACGA yielded a binding signal of -0.156 E-score. Then CACGTCTA, with -0.221 E-score. Take GGTATGCA: the binding signal was determined as 0.143 E-score. Then GCGACCTA, with 0.0632 E-score; and CGAGTTCA, with 0.151 E-score. Then AATGGATA, with 0.117 E-score; and GCCTTGGA, with -0.271 E-score; and CCACAGAA, with 0.0919 E-score. Then ACTGGAAC, with 0.102 E-score; and ACTAACAG, with 0.0984 E-score; and GAACGTAA, with -0.0377 E-score.

As to CTACCTAC, the binding signal came out at 0.346 E-score. Then ATCTTCCA, with 0.0738 E-score; and AGATAGCC, with 0.0431 E-score; and GGGTATGA, with 0.0637 E-score. The same measure for GAAACTCC: -0.0923 E-score. Then GCCCAACC, with -0.287 E-score; and CCTCAGCC, with -0.314 E-score; and CTCGGGGC, with -0.169 E-score. Consider GGTACTAC, for which the binding signal amounted to 0.212 E-score. Sequence CAATACTC gave a binding signal of 0.0708 E-score.

Take AACACAGA: the binding signal is -0.0373 E-score.

Sequence ACGCCCGT gave a binding signal of -0.212 E-score.

For ACGAACTA, the binding signal stood at 0.321 E-score. The same measure for ACTAGAGG: -0.111 E-score. Then GAGTGGTA, with 0.283 E-score; and CTGAATCA, with -0.0874 E-score. For the sequence AATGGAAG, the binding signal was -0.104 E-score. Then TGGTTTAA, with -0.0708 E-score; and GGAGCGGA, with -0.237 E-score.

GCGCTTTA gave a binding signal of -0.22 E-score. As for ATTGCATG, the binding signal worked out at 0.232 E-score. The same measure for ACTAGAGA: -0.0107 E-score; for TATTATAA: 0.191 E-score; for ATTGACCC: -0.24 E-score. Then CCTCGTAA, with 0.111 E-score; and AGCCGCAC, with -0.163 E-score. Consider CAACTCAG, for which the binding signal worked out at 0.0431 E-score. In the case of CGGCAGTA, the binding signal is -0.0498 E-score. Then ATGCGATG, with 0.158 E-score. The same measure for CAACATTA: 0.173 E-score. On to ACAGGTCC, for which the binding signal was -0.238 E-score. Then GAGGATCC, with -0.0422 E-score. Then AAGGATGG, with -0.0766 E-score; and CGAAGTCC, with -0.0686 E-score; and GCGAGAAC, with -0.0998 E-score. In turn, CCGAGCTA returned a binding signal of -0.0443 E-score. The same measure for CAGGTTCC: -0.216 E-score.

With TCACCCAA, the binding signal was 0.222 E-score. The same measure for ATTGGACG: 0.0712 E-score.

Turning to AGGCGCGA, the binding signal is -0.15 E-score. The same measure for GAATCGTC: 0.0347 E-score. The same measure for CCATACGG: -0.189 E-score. Then GTCACTGA, with -0.109 E-score; and AAGATCGC, with -0.0328 E-score. In turn, GGATTAGA had a binding signal of 0.0143 E-score. The same measure for AGACTAAT: 0.167 E-score; for CTTCCCAA: -0.198 E-score. The sequence AGTAGGGG had a binding signal of -0.205 E-score. For AAGGTGAA, the binding signal was -0.115 E-score. On to GGTTTCGA, for which the binding signal is -0.238 E-score. Consider CCGGTGCG, for which the binding signal was -0.29 E-score. Regarding ATAGCGAC, the binding signal turned out to be 0.0894 E-score. Take GTGCGGGA: the binding signal was -0.198 E-score.

In turn, GGACGTAA returned a binding signal of 0.0485 E-score.

Take AAGGAAGC: the binding signal was -0.0428 E-score. For the sequence GCCGGAGC, the binding signal is -0.322 E-score.

For the sequence ACTGTTAC, the binding signal turned out to be 0.217 E-score. Then CAACATTG, with 0.117 E-score; and TATGAATA, with 0.198 E-score; and GAGAGGAA, with -0.168 E-score. CAGGATGA gave a binding signal of -0.2 E-score. The same measure for CTTTATAA: 0.0826 E-score; for ATGGTCTA: 0.0573 E-score. The same measure for GACGAGAA: -0.207 E-score; for GGCCCCGA: -0.282 E-score; for AGAAGTCA: -0.0141 E-score.

With CCAGCTGA, the binding signal was -0.0708 E-score. Then GCCCCCGA, with -0.304 E-score. Then CACAAATG, with -0.0865 E-score; and CCTCGGCA, with -0.378 E-score; and GGTACTCA, with 0.0512 E-score.

The sequence GCAACCAA returned a binding signal of 0.153 E-score. The same measure for AAACTTCG: 0.00691 E-score.

In turn, CGATAAAC registered a binding signal of 0.125 E-score. ACTTAACG: the binding signal was 0.0884 E-score.

Turning to CCTGTGTC, the binding signal is -0.121 E-score. The same measure for TCTCTAAA: -0.0574 E-score; for GCAGTACA: 0.187 E-score. Then ACAAAAAA, with 0.113 E-score. Then TCACCAAA, with 0.0724 E-score; and CGCCGCTC, with -0.284 E-score; and GGCCAACC, with -0.192 E-score. Sequence ATACGAGA returned a binding signal of 0.082 E-score. GGGTTTTA showed a binding signal of -0.0464 E-score.

As for CTGCAAAG, the binding signal was -0.147 E-score. Then ACCCCTTG, with -0.176 E-score. For AACTGCAG, the binding signal is 0.212 E-score. The same measure for CGCTCGGA: -0.343 E-score; for CATAGAAC: 0.0494 E-score; for CTCCCTTA: -0.197 E-score. The same measure for TAGTTAAA: 0.12 E-score; for ACCGGTTA: 0.164 E-score.

In the case of AACTCCGG, the binding signal was -0.0993 E-score. Then CTGTCATC, with 0.121 E-score.
